Reference: the supplement of paper PMC8728848
The other results are listed elsewhere or left out.

Legend:
Experiment in all cases: glycan array binding signal (z-score within array); higher = stronger binding
Conditions in all cases: glycan notation: IUPAC condensed, linker removed
[1] = target: Fuc(a1-2)Gal(b1-4)[Fuc(a1-3)]GlcNAc
Outline: (§1)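 The Consortium for Functional Glycomics database supplied 3228 glycan arrays, of which those lacking an available protein sequence were dropped. The binding signal, a within-array Z-score, was averaged across arrays of the same protein sequence and across linkers. Negative scores can be read as non-binding.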

[2] = target: Fuc(a1-2)Gal(b1-4)[Fuc(a1-3)]GlcNAc(b1-2)Man(a1-3)[Fuc(a1-2)Gal(b1-4)[Fuc(a1-3)]GlcNAc(b1-2)Man(a1-6)]Man(b1-4)GlcNAc(b1-4)[Fuc(a1-6)]GlcNAc
Outline: as §1

[3] = target: Fuc(a1-2)Gal(b1-4)[Fuc(a1-3)]GlcNAc(b1-2)[Fuc(a1-2)Gal(b1-4)[Fuc(a1-3)]GlcNAc(b1-4)]Man(a1-3)[Fuc(a1-2)Gal(b1-4)[Fuc(a1-3)]GlcNAc(b1-2)Man(a1-6)]Man(b1-4)GlcNAc(b1-4)GlcNAc
Outline: as §1

[4] = target: Fuc(a1-2)Gal(b1-4)[Fuc(a1-3)]GlcNAc(b1-3)Gal(b1-4)[Fuc(a1-3)]GlcNAc
Outline: as §1

[5] = target: Fuc(a1-2)Gal(b1-4)[Fuc(a1-3)]GlcNAc(b1-3)Gal(b1-4)[Fuc(a1-3)]GlcNAc(b1-3)Gal(b1-4)[Fuc(a1-3)]GlcNAc
Outline: as §1

[6] = target: Fuc(a1-2)Gal(b1-4)[Fuc(a1-3)]GlcNAc(b1-3)GalNAc
Outline: as §1

[7] = target: Fuc(a1-2)Gal(b1-4)[Fuc(a1-3)]GlcNAc(b1-3)[Neu5Ac(a2-6)Gal(b1-4)GlcNAc(b1-6)]Gal(b1-4)Glc
Outline: as §1

[8] = target: Fuc(a1-2)Gal3S(b1-4)GlcNAc
Outline: as §1

[9] = target: Fuc(a1-2)Gal6S(b1-3)GlcNAc
Outline: as §1

[10] = target: Fuc(a1-2)Gal6S(b1-3)GlcNAc6S
Outline: as §1

Fuc(a1-2)Gal6S(b1-4)Glc = target: Fuc(a1-2)Gal6S(b1-4)Glc
Outline: as §1

[11] = target: Fuc(a1-2)Gal6S(b1-4)Glc6S
Outline: as §1

Fuc(a1-2)[Gal(a1-3)]Gal = target: Fuc(a1-2)[Gal(a1-3)]Gal
Outline: as §1

[12] = target: Fuc(a1-2)[Gal(a1-3)]Gal(b1-3)GalNAc
Outline: as §1

[13] = target: Fuc(a1-2)[Gal(a1-3)]Gal(b1-3)GalNAc(b1-3)Gal(a1-4)Gal(b1-4)Glc
Outline: as §1

[14] = target: Fuc(a1-2)[Gal(a1-3)]Gal(b1-3)GlcNAc
Outline: as §1

[15] = target: Fuc(a1-2)[Gal(a1-3)]Gal(b1-3)GlcNAc(b1-2)Man(a1-3)[Fuc(a1-2)[Gal(a1-3)]Gal(b1-3)GlcNAc(b1-2)Man(a1-6)]Man(b1-4)GlcNAc(b1-4)GlcNAc
Outline: as §1

[16] = target: Fuc(a1-2)[Gal(a1-3)]Gal(b1-3)GlcNAc(b1-2)Man(a1-3)[Fuc(a1-2)[Gal(a1-3)]Gal(b1-3)GlcNAc(b1-2)Man(a1-6)]Man(b1-4)GlcNAc(b1-4)[Fuc(a1-6)]GlcNAc
Outline: as §1

[17] = target: Fuc(a1-2)[Gal(a1-3)]Gal(b1-3)GlcNAc(b1-3)GalNAc
Outline: as §1

[18] = target: Fuc(a1-2)[Gal(a1-3)]Gal(b1-3)GlcNAc(b1-6)GalNAc
Outline: as §1

[19] = target: Fuc(a1-2)[Gal(a1-3)]Gal(b1-4)Glc
Outline: as §1

[20] = target: Fuc(a1-2)[Gal(a1-3)]Gal(b1-4)GlcNAc
Outline: as §1

[21] = target: Fuc(a1-2)[Gal(a1-3)]Gal(b1-4)GlcNAc(b1-2)Man
Outline: as §1

[22] = target: Fuc(a1-2)[Gal(a1-3)]Gal(b1-4)GlcNAc(b1-2)Man(a1-3)[Fuc(a1-2)[Gal(a1-3)]Gal(b1-4)GlcNAc(b1-2)Man(a1-6)]Man(b1-4)GlcNAc(b1-4)GlcNAc
Outline: as §1

[23] = target: Fuc(a1-2)[Gal(a1-3)]Gal(b1-4)GlcNAc(b1-2)Man(a1-3)[Fuc(a1-2)[Gal(a1-3)]Gal(b1-4)GlcNAc(b1-2)Man(a1-6)]Man(b1-4)GlcNAc(b1-4)[Fuc(a1-6)]GlcNAc
Outline: as §1

[24] = target: Fuc(a1-2)[Gal(a1-3)]Gal(b1-4)GlcNAc(b1-3)GalNAc
Outline: as §1

[25] = target: Fuc(a1-2)[Gal(a1-3)]Gal(b1-4)GlcNAc(b1-3)[Fuc(a1-2)[Gal(a1-3)]Gal(b1-4)GlcNAc(b1-6)]GalNAc
Outline: as §1

[26] = target: Fuc(a1-2)[Gal(a1-3)]Gal(b1-4)GlcNAc(b1-6)GalNAc
Outline: as §1

[27] = target: Fuc(a1-2)[Gal(a1-3)]Gal(b1-4)[Fuc(a1-3)]Glc
Outline: as §1

[28] = target: Fuc(a1-2)[Gal(a1-3)]Gal(b1-4)[Fuc(a1-3)]GlcNAc
Outline: as §1

[29] = target: Fuc(a1-2)[Gal(a1-3)]Gal(b1-4)[Fuc(a1-3)]GlcNAc(b1-3)GalNAc
Outline: as §1

[30] = target: Fuc(a1-2)[Gal(a1-4)]Gal(b1-4)GlcNAc
Outline: as §1

[31] = target: Fuc(a1-2)[GalNAc(a1-3)]Gal
Outline: as §1

[32] = target: Fuc(a1-2)[GalNAc(a1-3)]Gal(b1-3)GalNAc(a1-3)[Fuc(a1-2)]Gal(b1-4)GlcNAc
Outline: as §1

[33] = target: Fuc(a1-2)[GalNAc(a1-3)]Gal(b1-3)GalNAc(b1-3)Gal(a1-4)Gal(b1-4)Glc
Outline: as §1

[34] = target: Fuc(a1-2)[GalNAc(a1-3)]Gal(b1-3)GlcNAc
Outline: as §1

[35] = target: Fuc(a1-2)[GalNAc(a1-3)]Gal(b1-3)GlcNAc(b1-2)Man(a1-3)[Fuc(a1-2)[GalNAc(a1-3)]Gal(b1-3)GlcNAc(b1-2)Man(a1-6)]Man(b1-4)GlcNAc(b1-4)GlcNAc
Outline: as §1

[36] = target: Fuc(a1-2)[GalNAc(a1-3)]Gal(b1-3)GlcNAc(b1-2)Man(a1-3)[Fuc(a1-2)[GalNAc(a1-3)]Gal(b1-3)GlcNAc(b1-2)Man(a1-6)]Man(b1-4)GlcNAc(b1-4)[Fuc(a1-6)]GlcNAc
Outline: as §1

B1: DrGal9 (Danio rerio) (protein)
chain: MAFYQQPPYYNPRIPFSGPIQGGLQDGKSIIISGRVLPGANRFHVNLQCGSHSEANVALHFNPRYEDTDYVVNNSYLNRTWGSEERKYESPFAQGQTFTLQILVAQDKYKISTNGRHFMDYKHRIPFTQVDTVAVEGMVEVNSVAFQNPAGFIPPQAGYAPQYAVPPGCGFPAFPSAPNYTIPHKTVMNGGLHPGKNIVINGVVNPNAKSIIFNLCYRSGIAFHYNPRFDENVVVRNTNQMEKWGAEERFGGLPFHKGQPFQVTISCNPQHYNVFVNGKQEHTYKHRYTKLNDIDILEICGDLQLTSVQA
glycan array binding signal (z-score) [1]: -0.397
glycan array binding signal (z-score) [2]: -0.368
glycan array binding signal (z-score) [3]: -0.361
glycan array binding signal (z-score) [4]: -0.401
glycan array binding signal (z-score) [5]: -0.402
glycan array binding signal (z-score) [6]: -0.377
glycan array binding signal (z-score) [7]: -0.382
glycan array binding signal (z-score) [8]: -0.396
glycan array binding signal (z-score) [9]: -0.391
glycan array binding signal (z-score) [10]: -0.345
glycan array binding signal (z-score) (Fuc(a1-2)Gal6S(b1-4)Glc): -0.385
glycan array binding signal (z-score) [11]: -0.413
glycan array binding signal (z-score) (Fuc(a1-2)[Gal(a1-3)]Gal): -0.377
glycan array binding signal (z-score) [12]: -0.347
glycan array binding signal (z-score) [13]: -0.336
glycan array binding signal (z-score) [14]: 0.251
glycan array binding signal (z-score) [15]: 2.69
glycan array binding signal (z-score) [16]: 0.621
glycan array binding signal (z-score) [17]: -0.085
glycan array binding signal (z-score) [18]: 0.114
glycan array binding signal (z-score) [19]: 0.214
glycan array binding signal (z-score) [20]: 0.599
glycan array binding signal (z-score) [21]: 0.663
glycan array binding signal (z-score) [22]: 3.36
glycan array binding signal (z-score) [23]: 0.997
glycan array binding signal (z-score) [24]: 0.129
glycan array binding signal (z-score) [25]: 0.69
glycan array binding signal (z-score) [26]: -0.399
glycan array binding signal (z-score) [27]: -0.408
glycan array binding signal (z-score) [28]: -0.387
glycan array binding signal (z-score) [29]: -0.394
glycan array binding signal (z-score) [30]: -0.358
glycan array binding signal (z-score) [31]: -0.395
glycan array binding signal (z-score) [32]: -0.418
glycan array binding signal (z-score) [33]: -0.343
glycan array binding signal (z-score) [34]: -0.281
glycan array binding signal (z-score) [35]: -0.399
glycan array binding signal (z-score) [36]: -0.402
